Results are given in words; binding and its absence hold for the method and conditions named. For part of these data: In cells and extracts the contact can be indirect. Some results given as binding are weak or reduced against the parent protein; the word gives no strength. For part of these data: Tags and fused reporters may be left off the sequences shown.
What was measured:
HT:N1-213 (Drosophila) = HT:N1-213 (Drosophila) (UniProt Q8SYK5); assay: SEC; gel filtration of HT:N1-213; column not stated; both purified
[1] = molecular target: T1, CP190 aa 1-166 (yeast two-hybrid fusion) (Drosophila) (UniProt Q24478); assay: two-hybrid; yeast strain pJ694A, vectors pGBT9 and pGAD424; growth on media without tryptophan, leucine, histidine and adenine compared after 2-3 days; repeated three times
T1 sequence: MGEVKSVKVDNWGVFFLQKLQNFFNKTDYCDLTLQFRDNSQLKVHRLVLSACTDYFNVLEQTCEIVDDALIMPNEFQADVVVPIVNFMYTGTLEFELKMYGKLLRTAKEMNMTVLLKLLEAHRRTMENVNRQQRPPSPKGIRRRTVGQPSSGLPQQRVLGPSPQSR

[2] = molecular target: T2, full-length Insv (yeast two-hybrid fusion) (Drosophila) (UniProt Q8SYK5); assay: as above
T2 sequence: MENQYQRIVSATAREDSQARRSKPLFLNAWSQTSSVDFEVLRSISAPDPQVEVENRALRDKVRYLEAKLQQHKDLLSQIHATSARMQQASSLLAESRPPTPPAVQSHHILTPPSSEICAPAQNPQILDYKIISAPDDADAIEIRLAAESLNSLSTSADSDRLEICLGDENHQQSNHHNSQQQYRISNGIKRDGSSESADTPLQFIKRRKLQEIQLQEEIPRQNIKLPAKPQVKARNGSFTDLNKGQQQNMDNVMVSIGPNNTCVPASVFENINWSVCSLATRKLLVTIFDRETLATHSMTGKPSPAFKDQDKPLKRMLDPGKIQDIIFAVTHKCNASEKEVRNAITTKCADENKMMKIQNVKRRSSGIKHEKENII

[3] = molecular target: T3, CP190 aa 309-470 (yeast two-hybrid fusion) (Drosophila) (UniProt Q24478); assay: as above
T3 sequence: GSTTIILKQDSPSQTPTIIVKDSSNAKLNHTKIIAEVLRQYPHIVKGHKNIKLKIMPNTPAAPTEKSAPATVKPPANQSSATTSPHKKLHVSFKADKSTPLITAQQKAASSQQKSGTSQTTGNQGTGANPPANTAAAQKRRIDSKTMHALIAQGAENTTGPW

[4] = molecular target: T4, full-length CP190 (yeast two-hybrid fusion) (Drosophila) (UniProt Q24478); assay: as above
T4 sequence: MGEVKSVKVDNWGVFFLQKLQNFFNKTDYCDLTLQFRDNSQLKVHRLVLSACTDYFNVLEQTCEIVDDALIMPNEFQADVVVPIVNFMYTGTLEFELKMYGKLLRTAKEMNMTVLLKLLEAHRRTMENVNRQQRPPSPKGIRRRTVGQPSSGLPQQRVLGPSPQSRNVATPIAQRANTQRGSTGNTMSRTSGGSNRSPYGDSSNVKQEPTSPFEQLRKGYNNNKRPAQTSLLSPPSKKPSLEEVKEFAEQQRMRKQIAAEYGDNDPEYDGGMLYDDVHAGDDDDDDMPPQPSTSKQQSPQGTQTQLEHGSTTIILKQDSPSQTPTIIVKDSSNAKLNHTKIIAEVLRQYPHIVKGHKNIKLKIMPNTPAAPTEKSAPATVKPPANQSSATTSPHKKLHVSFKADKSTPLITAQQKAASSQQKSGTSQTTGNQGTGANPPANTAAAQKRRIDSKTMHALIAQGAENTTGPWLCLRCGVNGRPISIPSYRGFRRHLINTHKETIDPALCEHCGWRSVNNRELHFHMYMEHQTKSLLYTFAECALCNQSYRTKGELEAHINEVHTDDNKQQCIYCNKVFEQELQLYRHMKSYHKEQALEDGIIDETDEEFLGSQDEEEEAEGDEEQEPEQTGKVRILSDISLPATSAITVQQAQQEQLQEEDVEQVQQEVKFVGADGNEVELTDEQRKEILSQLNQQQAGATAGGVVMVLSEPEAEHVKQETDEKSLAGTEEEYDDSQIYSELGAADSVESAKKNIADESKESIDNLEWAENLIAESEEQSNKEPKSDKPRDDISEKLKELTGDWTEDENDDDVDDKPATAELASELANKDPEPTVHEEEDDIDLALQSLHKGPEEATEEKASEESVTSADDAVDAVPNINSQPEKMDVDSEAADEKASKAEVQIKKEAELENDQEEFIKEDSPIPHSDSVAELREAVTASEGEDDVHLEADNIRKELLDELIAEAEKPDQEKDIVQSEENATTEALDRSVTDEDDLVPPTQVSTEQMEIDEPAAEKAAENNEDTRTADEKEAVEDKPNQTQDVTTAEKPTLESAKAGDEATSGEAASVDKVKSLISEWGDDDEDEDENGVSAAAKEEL

[5] = molecular target: T5, MBP-Insv[1-267] (Drosophila) (UniProt Q8SYK5); assay: pull-down; MBP pull-down on Immobilized Amylose Agarose in buffer C (20 mM HEPES-KOH pH 7.7, 150 mM NaCl, 10 mM MgCl2, 0.1 mM ZnCl2, 0.1% NP40, 10% glycerol); lysate of BL21 cells co-expressing both proteins; washed with 500 mM NaCl
T5 sequence: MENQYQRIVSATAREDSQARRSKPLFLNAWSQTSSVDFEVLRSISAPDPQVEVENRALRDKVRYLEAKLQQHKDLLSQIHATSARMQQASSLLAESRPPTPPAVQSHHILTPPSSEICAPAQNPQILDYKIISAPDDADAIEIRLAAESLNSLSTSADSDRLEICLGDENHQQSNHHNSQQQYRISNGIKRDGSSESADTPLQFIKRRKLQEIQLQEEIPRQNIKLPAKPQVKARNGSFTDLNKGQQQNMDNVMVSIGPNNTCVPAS

[6] = molecular target: T6, TRX-6xHis-CP190 [1-126] (Drosophila) (UniProt Q24478); assay: pull-down; 6xHis pull-down on Co-IDA resin in buffer A, washed with 30 mM imidazole; performed similarly to the MBP pull-down (co-expressed in BL21)
T6 sequence: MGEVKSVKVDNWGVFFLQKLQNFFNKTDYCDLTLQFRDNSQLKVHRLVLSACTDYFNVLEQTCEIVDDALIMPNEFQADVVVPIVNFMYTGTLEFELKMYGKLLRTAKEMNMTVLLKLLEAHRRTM

B1: HT:N1-213 (domain or fragment, Drosophila, UniProt Q8SYK5 1-213, looked up)
chain: MENQYQRIVSATAREDSQARRSKPLFLNAWSQTSSVDFEVLRSISAPDPQVEVENRALRDKVRYLEAKLQQHKDLLSQIHATSARMQQASSLLAESRPPTPPAVQSHHILTPPSSEICAPAQNPQILDYKIISAPDDADAIEIRLAAESLNSLSTSADSDRLEICLGDENHQQSNHHNSQQQYRISNGIKRDGSSESADTPLQFIKRRKLQEI
notes: source: E. coli, purified (Ni-NTA Agarose); not shown: His6, N-terminal, kept; Thioredoxin, N-terminal, kept
- binding (HT:N1-213 (Drosophila)): binds

B2: full-length Insv (yeast two-hybrid fusion) (protein, UniProt Q8SYK5 1-376)
chain: T2 sequence
- binding [1]: binds
- binding [2]: binds
- binding [3]: binds
- binding [4]: binds

B3: TRX-6xHis-CP190 [1-126] (domain or fragment, UniProt Q24478 1-126)
chain: T6 sequence
- binding [5]: binds

B4: HT:N1-267 (domain or fragment, Drosophila, UniProt Q8SYK5 1-267, looked up)
chain: T5 sequence
notes: as for B1
- binding [6]: binds

B5: His-Sumo C-BEN (HS:C-BEN) (domain or fragment, Drosophila, UniProt Q8SYK5 210-376, looked up)
chain: LQEIQLQEEIPRQNIKLPAKPQVKARNGSFTDLNKGQQQNMDNVMVSIGPNNTCVPASVFENINWSVCSLATRKLLVTIFDRETLATHSMTGKPSPAFKDQDKPLKRMLDPGKIQDIIFAVTHKCNASEKEVRNAITTKCADENKMMKIQNVKRRSSGIKHEKENII
notes: Insensitive (Insv), Drosophila; C domain plus BEN domain; 'lacks amino acids 1-209'; elsewhere the C domain is said to extend from aa 209 to aa 253; about 32 kDa with the tag; source: E. coli, purified (Ni-NTA Agarose); not shown: His6, N-terminal, kept; Sumo, N-terminal, kept
- binding [2]: no binding

B6: Insv d50-79 (yeast two-hybrid fusion) (protein, UniProt Q8SYK5)
chain: MENQYQRIVSATAREDSQARRSKPLFLNAWSQTSSVDFEVLRSISAPDPHATSARMQQASSLLAESRPPTPPAVQSHHILTPPSSEICAPAQNPQILDYKIISAPDDADAIEIRLAAESLNSLSTSADSDRLEICLGDENHQQSNHHNSQQQYRISNGIKRDGSSESADTPLQFIKRRKLQEIQLQEEIPRQNIKLPAKPQVKARNGSFTDLNKGQQQNMDNVMVSIGPNNTCVPASVFENINWSVCSLATRKLLVTIFDRETLATHSMTGKPSPAFKDQDKPLKRMLDPGKIQDIIFAVTHKCNASEKEVRNAITTKCADENKMMKIQNVKRRSSGIKHEKENII
- binding [2]: no binding

Reference: publication PMC6317261, “Functional dissection of the developmentally restricted BEN domain chromatin boundary factor Insensitive” (Epigenetics & Chromatin, 2019)
